From PMC5089861
Residue numbers refer to the chain shown, from its start. These are yes or no findings as the source states them, for the method shown. For part of these data: In cells and extracts the contact can be indirect. Some results given as binding are weak or reduced against the parent protein; the word gives no strength. For part of these data: Where a sequence is shown, tags or fusion partners need not be part of it. One block for each substance: values may come before it.

Amino acid sequences for entries named in this document (tags omitted). A change or cut given only in a name is not applied to a line headed by its entry.
UniProt G5E8K5: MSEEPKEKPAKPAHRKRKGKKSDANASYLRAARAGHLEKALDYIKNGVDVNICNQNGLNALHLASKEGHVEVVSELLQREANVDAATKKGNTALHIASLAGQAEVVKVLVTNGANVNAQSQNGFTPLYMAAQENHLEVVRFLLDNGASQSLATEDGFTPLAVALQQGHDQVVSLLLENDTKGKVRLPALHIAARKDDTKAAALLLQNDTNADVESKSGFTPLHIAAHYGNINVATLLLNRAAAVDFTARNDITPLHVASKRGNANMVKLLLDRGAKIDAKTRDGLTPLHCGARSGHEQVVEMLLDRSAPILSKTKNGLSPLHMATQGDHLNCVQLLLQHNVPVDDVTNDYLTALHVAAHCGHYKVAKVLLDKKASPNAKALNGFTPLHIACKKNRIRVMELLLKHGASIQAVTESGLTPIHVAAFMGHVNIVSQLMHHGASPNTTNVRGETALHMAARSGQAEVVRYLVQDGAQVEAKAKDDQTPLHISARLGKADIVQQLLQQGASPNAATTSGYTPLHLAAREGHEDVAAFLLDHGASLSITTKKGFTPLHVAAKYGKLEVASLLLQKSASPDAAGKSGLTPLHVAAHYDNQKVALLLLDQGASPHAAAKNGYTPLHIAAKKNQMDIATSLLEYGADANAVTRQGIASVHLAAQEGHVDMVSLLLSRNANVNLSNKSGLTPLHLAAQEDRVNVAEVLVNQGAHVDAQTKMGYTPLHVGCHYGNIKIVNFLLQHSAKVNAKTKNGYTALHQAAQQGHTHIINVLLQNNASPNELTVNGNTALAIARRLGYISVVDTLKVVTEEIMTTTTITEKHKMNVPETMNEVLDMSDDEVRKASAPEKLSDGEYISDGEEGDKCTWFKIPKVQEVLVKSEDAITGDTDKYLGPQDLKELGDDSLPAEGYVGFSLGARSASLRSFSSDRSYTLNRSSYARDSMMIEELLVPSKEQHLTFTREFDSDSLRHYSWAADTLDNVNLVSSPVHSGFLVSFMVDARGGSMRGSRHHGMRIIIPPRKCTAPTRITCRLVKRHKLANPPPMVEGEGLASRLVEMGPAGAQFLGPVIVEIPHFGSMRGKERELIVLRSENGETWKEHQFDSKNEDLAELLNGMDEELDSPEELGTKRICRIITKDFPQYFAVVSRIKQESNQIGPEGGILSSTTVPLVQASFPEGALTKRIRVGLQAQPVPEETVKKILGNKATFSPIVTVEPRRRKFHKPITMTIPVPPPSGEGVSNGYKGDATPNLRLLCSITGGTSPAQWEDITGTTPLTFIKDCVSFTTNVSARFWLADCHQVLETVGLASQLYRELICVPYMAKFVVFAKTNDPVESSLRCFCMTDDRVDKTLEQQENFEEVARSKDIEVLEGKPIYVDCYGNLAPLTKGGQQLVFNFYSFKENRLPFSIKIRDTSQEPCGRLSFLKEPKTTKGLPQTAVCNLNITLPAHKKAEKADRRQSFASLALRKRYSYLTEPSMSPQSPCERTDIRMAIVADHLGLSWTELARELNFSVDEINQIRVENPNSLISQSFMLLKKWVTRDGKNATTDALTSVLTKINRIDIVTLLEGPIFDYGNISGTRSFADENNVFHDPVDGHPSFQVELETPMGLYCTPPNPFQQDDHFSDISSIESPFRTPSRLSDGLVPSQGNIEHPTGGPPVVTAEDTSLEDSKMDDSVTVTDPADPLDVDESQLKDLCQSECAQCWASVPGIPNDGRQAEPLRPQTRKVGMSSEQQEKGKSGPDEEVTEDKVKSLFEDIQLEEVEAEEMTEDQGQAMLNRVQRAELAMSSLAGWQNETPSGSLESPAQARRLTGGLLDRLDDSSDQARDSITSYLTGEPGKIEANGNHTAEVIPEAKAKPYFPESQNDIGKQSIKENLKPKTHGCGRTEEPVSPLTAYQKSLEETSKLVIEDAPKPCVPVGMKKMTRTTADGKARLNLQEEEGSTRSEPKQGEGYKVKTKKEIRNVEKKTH

Assays:
full length WT AnkB-HA = full length WT AnkB-HA (UniProt Q01484); assay: co-IP; HEK293 cells transfected with both plasmids, lysed in 0.5% Triton X-100, 10 mM sodium phosphate, 0.32 M sucrose, 2 mM EDTA; mouse anti-HA or rabbit anti-GFP with protein A/G Dynabeads; Western blot
[1] = molecular target: full length E1537K AnkB-HA (UniProt Q01484); assay: as above
[2] = molecular target: T1, AnkB death domain E1537K, GAL4 DNA-BD bait (human) (UniProt Q01484); assay: two-hybrid; AnkB DD wild-type or mutant baits (pGBKT7) with RabGAP1L C-terminal domain in pGADT7; plates -Leu, -Trp, -His, -Ade with 125 ng/ml Aureobasidin A
T1 sequence: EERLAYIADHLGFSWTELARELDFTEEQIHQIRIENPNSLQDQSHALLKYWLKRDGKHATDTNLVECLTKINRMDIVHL

[3] = molecular target: T2, AnkB death domain (aa1485-1563), GAL4 DNA-BD bait (human) (UniProt Q01484); assay: as above
T2 sequence: T1 sequence with K53E

[4] = molecular target: total AnkB in brain and skeletal muscle of PND30 mice (mouse (endogenous in brain and skeletal muscle)) (UniProt Q8C8R3); assay: proximity ligation; Duolink kit on deparaffinized sections of PND30 mouse brain and skeletal muscle, antibodies against total AnkB and RabGAP1L
[5] = molecular target: full-length endogenous AnkG of mouse embryonic fibroblasts (mouse (endogenous in MEFs)) (UniProt G5E8K5); assay: co-IP; endogenous proteins from WT MEF lysates (PBS, 150 mM NaCl, 0.32 M sucrose, 2 mM EDTA, 0.1% Triton X-100, 0.1% sodium deoxycholate, 0.1% SDS); antibodies against AnkB, AnkG, RabGAP1L or control IgG; Western blot

binding (full length WT AnkB-HA): binds
binding [1]: no binding
Substance: WT RabGAP1L-GFP (from UniProt A6H6A9 1-815)

Substance: RabGAP1L TBC-C-terminal domain (residues E507-L815), pGADT7 prey (from UniProt A6H6A9 507-815) (domain or fragment)
binding [2]: no binding
binding [3]: binds

binding [4]: binds
binding [5]: no binding
Substance: endogenous RabGAP1L (93 kDa), mouse (from UniProt A6H6A9 1-815)
